In a compilation of properties of binary mixtures (doi:10.1016/j.molliq.2013.10.014):
The densities may have been worked out from excess volumes.

Assay: xn = mol fraction of the nth substance listed
Settings: 100 kPa

CC[n+]1ccn(C)c1.O=S(=O)([N-]S(=O)(=O)C(F)(F)F)C(F)(F)F + c1ccccc1
mass density [kg/m3]
Settings	x2 = 0	x2 = 0.135	x2 = 0.339	x2 = 0.471	x2 = 0.492
298.15 K	1519	–	–	1381	1373
308.15 K	1509	1480	1421	1371	1363
318.15 K	1499	1469	1411	–	1352
328.15 K	–	1460	–	1350	1342

c1ccccc1 + CCCC[n+]1ccn(C)c1.O=S(=O)([O-])C(F)(F)F
x1 = 1
Settings	mass density [kg/m3]
298.15 K	874
328.15 K	841

c1ccccc1 + CC[n+]1ccn(C)c1.O=S(=O)([N-]S(=O)(=O)C(F)(F)F)C(F)(F)F
x1 = 1
Settings	mass density [kg/m3]
298.15 K	874
308.15 K	863
318.15 K	852
328.15 K	841

CCCC[n+]1ccn(C)c1.O=S(=O)([N-]S(=O)(=O)C(F)(F)F)C(F)(F)F + c1ccsc1
x2 = 0
Settings	mass density [kg/m3]
298.15 K	1437
308.15 K	1428
318.15 K	1418

c1ccsc1 + CCCC[n+]1ccn(C)c1.O=S(=O)([N-]S(=O)(=O)C(F)(F)F)C(F)(F)F
mass density [kg/m3]
Settings	x1 = 0.089	x1 = 0.276	x1 = 0.336	x1 = 0.561	x1 = 0.77	x1 = 1
298.15 K	1429	1406	1397	–	1308	–
308.15 K	–	–	1387	1359	1298	1047
318.15 K	1410	1386	1377	1349	1287	1034
328.15 K	1401	1376	1368	1339	1277	1022

CCCC[n+]1ccn(C)c1.O=S(=O)([O-])C(F)(F)F + c1ccccc1
mass density [kg/m3]
Settings	x2 = 0	x2 = 0.122	x2 = 0.304	x2 = 0.353	x2 = 0.573
298.15 K	–	–	1246	1232	–
308.15 K	1292	–	–	1224	1160
318.15 K	1284	1264	1229	1216	–
328.15 K	1276	1256	–	1208	1143
